# Laboratory results from the supplement of paper PMC11417369.
# The list shows a part of the results.
# System: PfAP2-HC AP2 domain (GST-tagged)
# Test: gcPBM binding intensity (ln(normalized median fluorescence intensity)); higher = stronger DNA binding
# Summary of the method: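 Binding intensity is defined as the maximum Masliner-normalised natural-log median intensity across replicate spots for either probe orientation. It was measured on an Agilent 4 × 180k array of primer-extended double-stranded 36-bp intergenic genomic probes and negative controls, to which GST-tagged P. falciparum DNA-binding domains made in E. coli were applied for 1 h in 1× PBS with 1% milk, 0.2 mg/ml BSA, 0.5% salmon testes DNA and 0.03% Triton X-100. Detection was by Alexa488 anti-GST antibody and scanning at 488 nm.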
row,Sequence,gcPBM binding intensity (ln)
1,ACGTAATTAATTCATCAGATATAATTAATAATAATA [XGTACX_negctrl_site550],9.52
2,TATATAACTTTATTTTTCTTTACTTATTTTATTTTA [GTGCAC_negctrl_site66],9.7
3,CTAGCAAATACATACACACACACACGGATACCTATA [CACACA_site7609],10.4
4,TTTTTTAAAATATATATAATGAATTTTTTTTTTTTT [CACACA_negctrl_site1577],9
5,AAAGAAAAAAAAAAAAGTACATAAATATAAAAAGAA [XGTACX_site6753],9.72
6,ATATATATATATATATGTACATATTATTAATAATAT [XGTACX_site6667],9.76
7,TATTTATATTTATATACACACTATATAACTCAAACA [CACACA_site6611],9.67
8,AATTGTTCGATATATGCACACAGTTTTGTTATTTTT [CACACA_site1615],10.1
9,ATACATATTAACAAGGTGCAAATGGATTTCATAAAA [GTGCAC_site9775],9.74
10,TTTTTTTTTTTGTGAGTGCACGTATGAAGAGAAAAA,9.33
11,TTATGGAACCCCATTCGTACATAAATATTTTATATA [XGTACX_site7112],9.56
12,GATATGATTACCTTATGGTGTTTTTGATGGATAGTT [CACACA_negctrl_site1504],9.68
13,TTTTTTATTTTAATGTATTATTTTTATGTAATATAT [GTGCAC_negctrl_site391],9.68
14,TATATACAAATATGCTGTACAAAAAAAAAAAAAAAA [XGTACX_site4732],9.24
15,TATAATAATAATGATAGTACGTATGAGTTCAAAAAA [XGTACX_site608],9.85
16,CGGTATTTTTTAATTTGTACGCATATACAATAATTA [XGTACX_site8603],9.54
17,TTTTATTATTTATATACACACTTGCTGAAATGTTAT [CACACA_site5919],9.86
18,TTTATGCACGCGTGCACACACATATGAAAAAAGGTA [CACACA_site3315],10.1
19,TATGTTTAAATATATTGTACGCACGTATGTTTTTAA [XGTACX_site1108],9.65
20,ACAAATAAATATATATGTACATATATTTTTTTATTT [XGTACX_site2989],9.68
21,TTTTATTTATATTATACACACAAGGAAAAAAAAAAA [CACACA_site7690],9.63
22,AATACCTTTTAATAATGTACAAACAAAAATTAGAGA [XGTACX_site6850],9.66
23,TATATATTAAAAATAGTGCAAAATAATATATATATA [GTGCAC_site9716],9.82

row,Sequence,gcPBM binding intensity (ln)
1,AAGGGGAGAAAAATAAACGAAATATATACATACATA [XGTACX_negctrl_site88],9.64
2,ATATATATATATATATGTACATATTCATCTTATTCT [XGTACX_site1537],10.4
3,ATGTCTATATATTAAGGTACACATATATGCTATTCA [XGTACX_site6008],9.77
4,TTTTAGTTAATTCATGCATGTAAAGTTTTATTTATA [TGCATGCA_site252],9.66
5,AAAAAAAAAAAAAAAGTACACACTTTTGCGTACATG [CACACA_site3097],9.69
6,ATATTAATTTTTATTACACACTCTCAATTTTTATTT [CACACA_site58],9.78
7,AAAATATACATAAACACACACAAAACGTTTAAGAAA [CACACA_site1071],10.3
8,GTTTAACTGTTTTATACACACAATGTATCCAATAAA [CACACA_site5612],9.85
9,TTATTTTATTTTGAAGCATGCTTTTTGCTGTGATAA [TGCATGCA_site278],9.29
10,AAATAATATTTATACACACACACATATTTATATACA [CACACA_site6403],10.3
11,TTATGCGTTTGCAAAAGTACATATCTATTATTTTTA [XGTACX_site7609],9.5
12,TATAAAAATATTTAATGTACGAATCTGTGATATATC [XGTACX_site7881],9.5
13,CTAAACAGAATTATCACACATATAAATATAAACATA [CACACA_site4560],9.68
14,ATATATTACATATGTGTGCACGTTCCAAAATTTTTA,9.91
15,ATTATTAAAAGAAGAAGTACTTATATATTAATATTA [XGTACX_site5227],9.59
16,TTTTCATGTTGTAAAGCATGCTTTACTCATAAAAAA [TGCATGCA_site917],9.1
17,AAAATACACGCATACACACACACACGCGCACATATA [CACACA_site6448],10.6
18,GGTCTTATTTTTAGTAGTACAAATATAATATACATA [XGTACX_site6483],9.59
19,TTTTTTTTTTTTTGTTGTACCCATCATATATACATA [XGTACX_site4342],9.58
20,TTTTTTGTTTGAATGGTGCATTTTGTAATTATATTT,9.75
21,ATAATATCATAATATTGTACATATTTTATTTTAAAT [XGTACX_site1115],9.5
22,CAACTAACATATATTCAACACACATATACCTTCAAC [CACACA_site8988],9.96
23,TTAAAATAGATATTAGTGCAAAAAAAAAAAAATAAA,9.64

row,Sequence,gcPBM binding intensity (ln)
1,TTTTTAATTAACTTTTTATAAATAAATAAAAATATA [GTGCAC_negctrl_site334],9.07
2,AAAAGAAAATTAAATTAACACACATAAATATATATA [CACACA_site8482],9.85
3,TTCACATACAGAAACACACACATATTTATAAATTAA [CACACA_site7699],10.5
4,ATTATTTAATTTTATTAAAAAAAAACAAATTAACAG [GTGCAC_negctrl_site152],9.44
5,TAACATATTATATATACATGCATACGTGAACTAATC [TGCATGCA_site888],9.72
6,ATTGTATATGTATATGCACACAATATATGTACTTAT [CACACA_site2611],9.97
7,GATATATTATTTGAATGTACATATTATATTTATATT [XGTACX_site907],9.79
8,GTTAGAATTGTTAGGTGGTCAAAAAGGAGAAAAAAA [XGTACX_site2086],9.56
9,TTTTTTTAGTTAATTAAACACACAAAAAAAAAAATA [CACACA_site9301],9.4
10,AAAAAAATAAAAAGGAACGTCTATAGTTAATTTATT [CACACA_negctrl_site919],9.87
11,AATCGATTGGATAATATTTTTTCTCTTAATTTTTTG [GTGCAC_negctrl_site165],9.44
12,TATATTAGAAGAAATTCACACATTCATGTAATCTTA [CACACA_site4706],9.52
13,ATGTTGCACAATGTTACACACACAATATATATCGTT [CACACA_site4833],10.3
14,TATTATTTTTCCTAATGTACAAAATATATATTTTTA [XGTACX_site2727],9.39
15,TTCTTATATAAATACACACACAAAATATCTACAATG [CACACA_site4568],10.5
16,TTTGAATATATAAATATGCACACTTCTATTATAAAT [CACACA_site3359],9.63
17,TACTTACAGATAATAACACACAAGAAAAAAATAAAA [CACACA_site4716],10
18,TACAAATATGGACACACACACATATTTATATTTATA [CACACA_site6420],11
19,AAAAAACAGACATACACACACACACGGATATTTATA [CACACA_site7570],11.4
20,ATATAAATGTATATGACACACATATATATATATATA [CACACA_site889],10
21,AATATTTATGGGTGCACACAAACATACAGATATATA [CACACA_site5810],9.92
22,TATATATATATCAAGTGTACTTGTGTTTGTAATATT [XGTACX_site8854],9.74
23,TTTTTTTTGTTGTTGTTGCACTTGATAGGAATGGCT [GTGCAC_site9701],9.59

row,Sequence,gcPBM binding intensity (ln)
1,AAAAAAAACAGACACACACACAAATACATACACAAA [CACACA_site705],10.5
2,CCATTTACAAAAAGGAGTACACAAATATATGTTTAA [XGTACX_site649],9.51
3,AAAATAAATAAATACACACACACGAATATATATATA [CACACA_site1683],10.8
4,TTTTAAAAATAATAAATAAATAAAATTGAAGTTCCA [CACACA_negctrl_site305],9.43
5,TATATTTATTTATATACACACACTTGTATAAAAAAT [CACACA_site2036],9.92
6,TTAAATATTTTTAGAGTGCATGTAATAAAAATATAA [GTGCAC_site9414],9.51
7,TATATCAAAATACATACACACATTTGTATATACATT [CACACA_site2696],10
8,TATATACAGAAACACACACACACATATATATATATA [CACACA_site2247],10.2
9,TATCTATATGGGAACACACTCATAAATATATATCTA [CACACA_site4815],9.72
10,TATATATATATATTTACACACATTCATATAAATTCA [CACACA_site3532],9.66
11,GCCTACAGACTTAGTAGTACATGAGAAGATATATAT [XGTACX_site2269],9.48
12,AATATGAACGGACACACACACACAAAAAAAAAAAAA [CACACA_site5154],10.6
13,AAAATTTTTAAATATTGTACTATTTATTTTTAGCAT [XGTACX_site6190],9.56
14,AGGAAAAACTTGAATGCATGCGCACATTCTAGTTTG [TGCATGCA_site776],9.63
15,TATTATTACGTAATATGTACATATATTTATACCACT [XGTACX_site5918],9.74
16,AAAAAAAAAAAAAAATGTACAAAAATTACTATAAAA [XGTACX_site7683],9.48
17,TTTTTTTTTGTTTACACACACAAAATATTATATGTA [CACACA_site2470],10.1
18,AAAAATATATATAACACACACATAATATATATATAT [CACACA_site2537],10.2
19,TTATAACACATTACATGTACAAATATAAATATATTC [XGTACX_site6503],9.54
20,ATAACGATATATGTGCGTACTTATAGAATAAGCAAA [XGTACX_site6743],9.74
